# Measured values reported in the supplement of paper PMC8728848.
# The list shows a part of the results.
# Tests used:
# Experiment in all cases: glycan array binding signal (z-score within array); higher = stronger binding
# Settings in all cases: glycan notation: IUPAC condensed, linker removed
# [1] = biological target: Neu5Ac(a2-3)GalNAc(b1-4)GlcNAc
# Summary of the method: (§1)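 The Consortium for Functional Glycomics database supplied 3228 glycan arrays, of which those lacking an available protein sequence were dropped. The binding signal, a within-array Z-score, was averaged across arrays of the same protein sequence and across linkers. Negative scores can be read as non-binding.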
# [2] = biological target: Neu5Ac(a2-3)[GalNAc(b1-4)]Gal(b1-4)Glc
# Summary of the method: as §1
# [3] = biological target: Neu5Ac(a2-3)[GalNAc(b1-4)]Gal(b1-4)GlcNAc
# Summary of the method: as §1
# [4] = biological target: Neu5Ac(a2-3)[GalNAc(b1-4)]Gal(b1-4)GlcNAc(b1-3)GalNAc
# Summary of the method: as §1
# [5] = biological target: Neu5Ac(a2-3)[Neu5Ac(a2-6)]GalNAc
# Summary of the method: as §1
# [6] = biological target: Neu5Ac(a2-6)Gal
# Summary of the method: as §1
# [7] = biological target: Neu5Ac(a2-6)Gal(b1-3)GlcNAc(b1-3)[Gal(b1-4)GlcNAc(b1-6)]Gal(b1-4)Glc
# Summary of the method: as §1
# [8] = biological target: Neu5Ac(a2-6)Gal(b1-4)Glc
# Summary of the method: as §1
# [9] = biological target: Neu5Ac(a2-6)Gal(b1-4)GlcNAc
# Summary of the method: as §1
# [10] = biological target: Neu5Ac(a2-6)Gal(b1-4)GlcNAc(b1-2)Man
# Summary of the method: as §1
# [11] = biological target: Neu5Ac(a2-6)Gal(b1-4)GlcNAc(b1-2)Man(a1-3)Man(b1-4)GlcNAc(b1-4)GlcNAc
# Summary of the method: as §1
# [12] = biological target: Neu5Ac(a2-6)Gal(b1-4)GlcNAc(b1-2)Man(a1-3)[Gal(b1-4)GlcNAc(b1-2)Man(a1-6)]Man(b1-4)GlcNAc(b1-4)GlcNAc
# Summary of the method: as §1
# [13] = biological target: Neu5Ac(a2-6)Gal(b1-4)GlcNAc(b1-2)Man(a1-3)[GlcNAc(b1-2)Man(a1-6)]Man(b1-4)GlcNAc(b1-4)GlcNAc
# Summary of the method: as §1
# [14] = biological target: Neu5Ac(a2-6)Gal(b1-4)GlcNAc(b1-2)Man(a1-3)[GlcNAc(b1-4)][Neu5Ac(a2-6)Gal(b1-4)GlcNAc(b1-2)Man(a1-6)]Man(b1-4)GlcNAc(b1-4)GlcNAc
# Summary of the method: as §1
# [15] = biological target: Neu5Ac(a2-6)Gal(b1-4)GlcNAc(b1-2)Man(a1-3)[Man(a1-6)]Man(b1-4)GlcNAc(b1-4)GlcNAc
# Summary of the method: as §1
# [16] = biological target: Neu5Ac(a2-6)Gal(b1-4)GlcNAc(b1-2)Man(a1-3)[Neu5Ac(a2-3)Gal(b1-4)GlcNAc(b1-2)Man(a1-6)]Man(b1-4)GlcNAc(b1-4)GlcNAc
# Summary of the method: as §1
# [17] = biological target: Neu5Ac(a2-6)Gal(b1-4)GlcNAc(b1-2)Man(a1-3)[Neu5Ac(a2-6)Gal(b1-4)GlcNAc(b1-2)Man(a1-6)]Man(b1-4)GlcNAc(b1-4)GlcNAc
# Summary of the method: as §1
# [18] = biological target: Neu5Ac(a2-6)Gal(b1-4)GlcNAc(b1-2)Man(a1-3)[Neu5Ac(a2-6)Gal(b1-4)GlcNAc(b1-2)Man(a1-6)]Man(b1-4)GlcNAc(b1-4)[Fuc(a1-6)]GlcNAc
# Summary of the method: as §1
# [19] = biological target: Neu5Ac(a2-6)Gal(b1-4)GlcNAc(b1-2)Man(a1-6)Man(b1-4)GlcNAc(b1-4)GlcNAc
# Summary of the method: as §1
# [20] = biological target: Neu5Ac(a2-6)Gal(b1-4)GlcNAc(b1-2)Man(a1-6)[Gal(b1-4)GlcNAc(b1-2)Man(a1-3)]Man(b1-4)GlcNAc(b1-4)GlcNAc
# Summary of the method: as §1
# [21] = biological target: Neu5Ac(a2-6)Gal(b1-4)GlcNAc(b1-2)Man(a1-6)[GlcNAc(b1-2)Man(a1-3)]Man(b1-4)GlcNAc(b1-4)GlcNAc
# Summary of the method: as §1
# [22] = biological target: Neu5Ac(a2-6)Gal(b1-4)GlcNAc(b1-2)Man(a1-6)[Man(a1-3)]Man(b1-4)GlcNAc(b1-4)GlcNAc
# Summary of the method: as §1
# [23] = biological target: Neu5Ac(a2-6)Gal(b1-4)GlcNAc(b1-2)[Neu5Ac(a2-6)Gal(b1-4)GlcNAc(b1-4)]Man(a1-3)[GlcNAc(b1-4)][Neu5Ac(a2-6)Gal(b1-4)GlcNAc(b1-2)[Neu5Ac(a2-6)Gal(b1-4)GlcNAc(b1-6)]Man(a1-6)]Man(b1-4)GlcNAc(b1-4)GlcNAc
# Summary of the method: as §1
# [24] = biological target: Neu5Ac(a2-6)Gal(b1-4)GlcNAc(b1-2)[Neu5Ac(a2-6)Gal(b1-4)GlcNAc(b1-4)]Man(a1-3)[GlcNAc(b1-4)][Neu5Ac(a2-6)Gal(b1-4)GlcNAc(b1-4)Man(a1-6)]Man(b1-4)GlcNAc(b1-4)GlcNAc
# Summary of the method: as §1
# [25] = biological target: Neu5Ac(a2-6)Gal(b1-4)GlcNAc(b1-2)[Neu5Ac(a2-6)Gal(b1-4)GlcNAc(b1-6)]Man(a1-6)[Neu5Ac(a2-6)Gal(b1-4)GlcNAc(b1-2)Man(a1-3)][GlcNAc(b1-4)]Man(b1-4)GlcNAc(b1-4)GlcNAc
# Summary of the method: as §1
# [26] = biological target: Neu5Ac(a2-6)Gal(b1-4)GlcNAc(b1-3)Gal(b1-3)GlcNAc
# Summary of the method: as §1
# [27] = biological target: Neu5Ac(a2-6)Gal(b1-4)GlcNAc(b1-3)Gal(b1-4)GlcNAc
# Summary of the method: as §1
# [28] = biological target: Neu5Ac(a2-6)Gal(b1-4)GlcNAc(b1-3)Gal(b1-4)GlcNAc(b1-2)Man(a1-3)[Neu5Ac(a2-6)Gal(b1-4)GlcNAc(b1-3)Gal(b1-4)GlcNAc(b1-2)Man(a1-6)]GalNAc
# Summary of the method: as §1
# [29] = biological target: Neu5Ac(a2-6)Gal(b1-4)GlcNAc(b1-3)Gal(b1-4)GlcNAc(b1-3)Gal(b1-4)GlcNAc
# Summary of the method: as §1
# [30] = biological target: Neu5Ac(a2-6)Gal(b1-4)GlcNAc(b1-3)Gal(b1-4)GlcNAc(b1-3)Gal(b1-4)GlcNAc(b1-2)Man(a1-3)[Neu5Ac(a2-6)Gal(b1-4)GlcNAc(b1-3)Gal(b1-4)GlcNAc(b1-3)Gal(b1-4)GlcNAc(b1-2)Man(a1-6)]GalNAc
# Summary of the method: as §1
# [31] = biological target: Neu5Ac(a2-6)Gal(b1-4)GlcNAc(b1-3)Gal(b1-4)GlcNAc(b1-3)GalNAc
# Summary of the method: as §1
# [32] = biological target: Neu5Ac(a2-6)Gal(b1-4)GlcNAc(b1-3)Gal(b1-4)GlcNAc(b1-3)[Neu5Ac(a2-6)Gal(b1-4)GlcNAc(b1-3)Gal(b1-4)GlcNAc(b1-6)]GalNAc
# Summary of the method: as §1
# [33] = biological target: Neu5Ac(a2-6)Gal(b1-4)GlcNAc(b1-3)Gal(b1-4)GlcNAc(b1-6)[Gal(b1-3)]GalNAc
# Summary of the method: as §1
# [34] = biological target: Neu5Ac(a2-6)Gal(b1-4)GlcNAc(b1-3)Gal(b1-4)[Fuc(a1-3)]GlcNAc(b1-3)Gal(b1-4)[Fuc(a1-3)]GlcNAc
# Summary of the method: as §1
# [35] = biological target: Neu5Ac(a2-6)Gal(b1-4)GlcNAc(b1-3)GalNAc
# Summary of the method: as §1
# [36] = biological target: Neu5Ac(a2-6)Gal(b1-4)GlcNAc(b1-3)[Neu5Ac(a2-6)Gal(b1-4)GlcNAc(b1-6)]GalNAc
# Summary of the method: as §1
# [37] = biological target: Neu5Ac(a2-6)Gal(b1-4)GlcNAc(b1-6)GalNAc
# Summary of the method: as §1
# [38] = biological target: Neu5Ac(a2-6)Gal(b1-4)GlcNAc(b1-6)[Gal(b1-3)GlcNAc(b1-3)]Gal(b1-4)Glc
# Summary of the method: as §1
binder,measurement,setting,value
SBD-G4S3-SBD (protein) MASIPSSASVQLDSYNYDGSTFSGKIYVKNIAYSKKVTVVYADGSDNWNNNGNIIAASFSGPISGSNYEYWTFSASVKGIKEFYIKYEVSGKTYYDNNNSANYQVSTGGGGSGGGGSGGGGSEFASIPSSASVQLDSYNYDGSTFSGKIYVKNIAYSKKVTVVYADGSDNWNNNGNIIAASFSGPISGSNYEYWTFSASVKGIKEFYIKYEVSGKTYYDNNNSANYQVST,glycan array binding signal (z-score),[1],-0.344
same,glycan array binding signal (z-score),[2],-0.302
same,glycan array binding signal (z-score),[3],-0.046
same,glycan array binding signal (z-score),[4],1.13
same,glycan array binding signal (z-score),[5],-0.368
same,glycan array binding signal (z-score),[6],-0.372
same,glycan array binding signal (z-score),[7],-0.392
same,glycan array binding signal (z-score),[8],-0.399
same,glycan array binding signal (z-score),[9],-0.406
same,glycan array binding signal (z-score),[10],-0.375
same,glycan array binding signal (z-score),[11],-0.003
same,glycan array binding signal (z-score),[12],0.115
same,glycan array binding signal (z-score),[13],1.81
same,glycan array binding signal (z-score),[14],-0.091
same,glycan array binding signal (z-score),[15],0.556
same,glycan array binding signal (z-score),[16],-0.181
same,glycan array binding signal (z-score),[17],-0.33
same,glycan array binding signal (z-score),[18],0.912
same,glycan array binding signal (z-score),[19],-0.186
same,glycan array binding signal (z-score),[20],-0.44
same,glycan array binding signal (z-score),[21],-0.392
same,glycan array binding signal (z-score),[22],0.222
same,glycan array binding signal (z-score),[23],-0.032
same,glycan array binding signal (z-score),[24],-0.36
same,glycan array binding signal (z-score),[25],0.103
same,glycan array binding signal (z-score),[26],-0.368
same,glycan array binding signal (z-score),[27],-0.415
same,glycan array binding signal (z-score),[28],1.98
same,glycan array binding signal (z-score),[29],-0.382
same,glycan array binding signal (z-score),[30],0.419
same,glycan array binding signal (z-score),[31],-0.389
same,glycan array binding signal (z-score),[32],-0.275
same,glycan array binding signal (z-score),[33],-0.221
same,glycan array binding signal (z-score),[34],-0.376
same,glycan array binding signal (z-score),[35],-0.24
same,glycan array binding signal (z-score),[36],-0.291
same,glycan array binding signal (z-score),[37],-0.246
same,glycan array binding signal (z-score),[38],-0.241
